For 1 compound, growth results are on record in PubChem BioAssay AID1794734 (DTP/NCI, 2022).

The structures appear in SMILES notation.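 Cell lines were cultured in 96-well plates, exposed to a single compound concentration, and assessed for percent growth 48 hours later.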 Certain results were filed several times, with different values. They are shown here; other results are not. The source may hold further records. The screen tested this drug many times, at the concentration stated with the values; each value is one run. Counts like (3×) stand for listed records that agree.

The test system of the assay is HOP-18 NSCLC. Put plainly: NCI-60 one-dose screen, 48 h (100 = growth as untreated, 0 = no growth, -100 = all killed). The note with it: 2.5 mM. The protocol:
Growth inhibition of the HOP-18 human Non-Small Cell Lung tumor cell line is measured as a screen for anti-cancer activity. Cells are grown in 96 well plates and exposed to the test compound for 48 hours. Compounds are tested at a single concentration, which is 10^-5 M for most compounds. The reported endpoint is percent growth (GI% or GIPRCNT), where numbers from 0 - 100% represent growth inhibition, and numbers from -100% - 0 represent cell death. For example, a value of 40 represents 60% growth inhibition. A value of 0 means no net growth occurred over the course of the experiment. A value of -40 indicates 40% of cells at the beginning of the experiment died by the end of the experiment. A value of -100 means all cells are dead at the end of the experiment.
NCI-60 Human Tumor Cell Lines Screen was performed using the standard one-dose NCI protocol, which is described in more detail at https://dtp.cancer.gov/discovery_development/nci-60/default.htm.
Compounds with GIPRCNT values below 10 were considered active. Activity score was based on GIPRCNT using the following formula: […]
Score is 0 for GIPRCNT values of 100 or above, 50 for GIPRCNT values of 0, and 100 for GIPRCNT values of -100.

In the case of `O=c1[nH]cc(F)c(=O)[nH]1`, the growth reads like this: (runs of 1991) 31.8, 72.5, 28.6, 26.3, 68.9, 43.7, 38, 37.7, 88.4, 51.4, 35.8, -0.163%; (runs of 1992) 90.1, 109, 12.3, 43.5, 21.9, 44.6, 106, 63.2, 34.6 (2×), 50.4, 34.5, 56.3, 70, 91, 40.2, 53.9, 51.8, 58.6, 66.8, 32.1, -7.38, 49.1 (2×), 131, 79.7, 105, 78.1, 135, 113, 74.7, -2.45, 99.5, 44.5, 78.9, 88.2, 126, 18, 29.8, 24.1, 34.9, 17.9, 104, 80.6, 21, 28.4, 29.9, 19.9, 39.1, 32.7, 90.8, 31.4, 36.7, 1.79, 22.7, 22.5, 31.8, 71.1, 23.2, 28.8, 9.23, 35.6, 33.4, -13.4, 49.9, 23, 69.1, 29.3, 22.1, 47.4, 101, 60.6, 60.2%.
